Measurements as given in paper PMC4975667 (Molecular cell, 2016).

Biological target: the molecule itself
Experiment: crystal structure

B1: BAX G67R, recombinant (natural protein)
chain: not shown
Question: Does B1 bind?
Answer: Result: binds
